Laboratory results published in paper PMC4336329 (PLoS ONE, 2015).
Out of some 310,000 compounds screened, about 14,000 (4.5%) showed an effect of 50% or more. The effect is printed as a negative number. The list shows a part of the results.

Each molecule was assayed against human ether-à-go-go-related gene (hERG) potassium channel (human, UniProt Q12809) (assay: primary screen, population patch clamp on CHO cells stably expressing hERG).
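Further: peak tail current of the secondary pulse compared with the same well before compound.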

human ether-à-go-go-related gene (hERG) potassium channel, sequence (Q12809 whole entry, looked up): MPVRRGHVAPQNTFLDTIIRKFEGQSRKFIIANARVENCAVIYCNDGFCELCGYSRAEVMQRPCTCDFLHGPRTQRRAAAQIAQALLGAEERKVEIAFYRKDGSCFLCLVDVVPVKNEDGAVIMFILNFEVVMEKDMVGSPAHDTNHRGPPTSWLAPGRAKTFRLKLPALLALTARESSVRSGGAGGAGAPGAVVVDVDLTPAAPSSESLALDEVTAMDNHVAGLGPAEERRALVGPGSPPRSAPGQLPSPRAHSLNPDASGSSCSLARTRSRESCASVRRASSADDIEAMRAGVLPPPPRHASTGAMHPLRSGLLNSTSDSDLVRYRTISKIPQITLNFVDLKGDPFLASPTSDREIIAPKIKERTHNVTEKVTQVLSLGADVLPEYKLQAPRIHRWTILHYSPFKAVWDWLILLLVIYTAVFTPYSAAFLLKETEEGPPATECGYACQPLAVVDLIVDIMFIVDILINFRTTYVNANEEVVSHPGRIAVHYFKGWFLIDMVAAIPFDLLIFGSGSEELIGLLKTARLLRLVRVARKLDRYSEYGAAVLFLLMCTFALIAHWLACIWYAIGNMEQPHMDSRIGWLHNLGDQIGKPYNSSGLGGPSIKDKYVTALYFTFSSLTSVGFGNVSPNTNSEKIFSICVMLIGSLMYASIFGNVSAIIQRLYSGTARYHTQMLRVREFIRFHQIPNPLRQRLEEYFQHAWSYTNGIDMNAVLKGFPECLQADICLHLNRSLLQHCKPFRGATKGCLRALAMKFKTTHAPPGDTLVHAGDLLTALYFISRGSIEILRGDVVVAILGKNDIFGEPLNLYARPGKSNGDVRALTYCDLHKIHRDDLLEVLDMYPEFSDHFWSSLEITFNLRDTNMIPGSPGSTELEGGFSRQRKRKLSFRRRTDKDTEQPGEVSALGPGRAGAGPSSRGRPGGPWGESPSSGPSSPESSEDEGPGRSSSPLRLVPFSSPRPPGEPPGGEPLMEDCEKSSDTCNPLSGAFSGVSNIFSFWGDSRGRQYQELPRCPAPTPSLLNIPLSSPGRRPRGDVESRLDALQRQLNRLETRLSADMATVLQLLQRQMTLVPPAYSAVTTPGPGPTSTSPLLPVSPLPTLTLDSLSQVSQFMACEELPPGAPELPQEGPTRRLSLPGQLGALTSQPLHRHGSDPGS

Row | Compound | hERG current change (%, negative = inhibition) at 10uM [%]
1 | COc1ccc(OCC(=O)Nc2cccc(OC)c2)cc1 | -6.48
2 | COc1ccc(S(=O)(=O)NCCOc2ccc(Cl)cc2)cc1 | -18.5
3 | O=C(NCCCN1CCCC1)[C@H](CSCc1ccccc1)N1Cc2ccccc2C1=O | -56.8
4 | Cc1cccc(NC(=O)C2CC(=O)N(c3ccc4c(c3)OCCO4)C2)n1 (centres unmarked) | 13.5
5 | O=C(NCc1ccccn1)C(=O)NCC1OCCCN1S(=O)(=O)c1ccc(F)cc1 (centres unmarked) | 14.4
6 | C=Cc1ccc(Cn2c(=O)n(C)c(=O)c3sccc32)cc1 | 1.73
7 | C=CCn1c(SCc2ccc(C#N)cc2)nnc1-c1ccccc1 | -57.8
8 | CC(=O)N1CCN(c2nc(-c3ccco3)c3c(c2C#N)CC(C)(C)SC3)CC1 | -18.9
9 | COc1cccc(C(=O)Nc2cccc(NC(C)=O)c2)c1 | -8.39
10 | CC(=O)N1C(=O)N(C(C)=O)C2C1N(C)C(=O)N2C(C)=O (centres unmarked) | 13.8
11 | Cc1ccc(/C=C/C(O)=C2/C(=O)N(C)C3(C)CC2c2ccccc2O3)cc1 (centres unmarked) | 13.7
12 | COc1ccccc1NC(=O)C(=O)N/N=C/c1cccs1 | -4.36
13 | COc1ccc(NC(=O)C(NC(=O)c2ccc(=O)[nH]c2)c2ccccc2)cc1 (centres unmarked) | 1.01
14 | COc1cccc(C(=O)Nc2ccc(NC(C)=O)cc2)c1 | 6.12
15 | COc1cc(OC)cc(C(=O)N/N=C(\C)CC(=O)Nc2ccccn2)c1 | 22.1
16 | Cn1cccc1-c1nc2ccc(NC(=O)c3ccccc3)cc2[nH]1 | -39.3
17 | COCCCNC(=O)COc1ccc2oc3c(c2c1)CCCC3 | 0.387
18 | Cc1ccc(NC(=O)c2sc(N)nc2-c2ccc([N+](=O)[O-])cc2)cc1C | 8.18
19 | CC(=O)c1c(N2CCOCC2)nc(=S)n(-c2cc(C)ccc2C)c1C | 7.16

Row | Compound | hERG current change (%, negative = inhibition) at 10uM [%]
20 | O=C(c1ccccc1)N1CCN(C2c3cccc4cccc(c34)C2NS(=O)(=O)c2ccccc2)CC1 (centres unmarked) | -21.9
21 | COc1cc(C(=O)NCc2nnc(SCC(=O)NCc3ccco3)o2)cc(OC)c1OC | 27.9
22 | Cc1cc(Br)ccc1OCC(=O)N1CCCCCC1 | -12.1
23 | Cc1cnc(NC(=O)COc2cccc3c2OC(C)(C)C3)s1 | 11.5
24 | O=C(N/N=C/c1ccccc1Cl)c1[nH]c2ccc(Br)cc2c1-c1ccccc1 | 13
25 | O=C(N/N=C/c1cn(-c2cccs2)nc1-c1ccccc1)c1ccccc1O | 25
26 | O=C(Nc1cc(Cl)cc(Cl)c1)C1CCCC1 | 14.6
27 | Cc1ccc(C(=O)CCC(=O)N2CCN(c3ccc(F)cc3)CC2)cc1 | -10.1
28 | CCOC(=O)c1ccc(NC(=S)N2CCN(C)CC2)cc1 | 12.2
29 | C=C1CCC2[C@](C)(CO)[C@H](O)CC[C@@]2(C)[C@@H]1/C=C/C1=CCOC1=O (some centres unmarked) | 7.38
30 | Cn1c(CNC(=O)CNS(=O)(=O)c2ccc(Cl)cc2)cc(=O)n(C)c1=O | 24.1
31 | CCOC(=O)CSc1n[nH]c(NC(=O)c2ccc(F)cc2)n1 | -16.5
32 | COc1ccc(CCN2C(=O)N(c3ccc(OC)cc3)C(=O)C2CC(=O)Nc2ccccc2)cc1 (centres unmarked) | -23.4
33 | Cc1ccccc1N(Cc1cc(=O)[nH]c2ccccc12)C(=O)CCl | 15.6
34 | Cc1cccc(-c2n[nH]c(=S)n2/N=C/C=C/c2ccco2)c1 | 2.05
35 | O=C(NCc1ccc(F)cc1)c1cnc(-c2ccccn2)nc1C(F)(F)F | -7.64
36 | CCOC(=O)N1CCN(C(=O)COC(=O)c2cccc(C)c2[N+](=O)[O-])CC1 | -10.4
37 | CCC(Cc1ccccc1)NC(=O)C1CCN(S(=O)(=O)c2c(C)noc2C)CC1 (centres unmarked) | 4.09
38 | Cc1ccc(S(=O)(=O)N2CCN(CC(=O)N/N=C\c3ccc(Cl)c([N+](=O)[O-])c3)CC2)cc1 | -30.8

Row | Compound | hERG current change (%, negative = inhibition) at 10uM [%]
39 | CCc1nc2ccc(C(=O)N3CCN(c4ccc([N+](=O)[O-])cc4)CC3)cc2nc1CC | -72.1
40 | CC(=NCC1CCCO1)c1c(O)n(-c2ccccc2)c(=O)[nH]c1=O (centres unmarked) | -0.431
41 | CCOC(=O)/C(N=Nc1ccc2c(c1)OCO2)=C(\C)O | -2.75
42 | COc1cccc(C(=O)Nc2nnc(S(=O)(=O)N(C)Cc3ccccc3)s2)c1 | 17.4
43 | COCn1c(=O)c2c(nc(SC3=NCCS3)n2Cc2ccccc2C)n(COC)c1=O | -0.787
44 | CSc1ccccc1NC(=O)CN(C)CC(=O)Nc1c(F)cccc1F.O=C(O)C(=O)O | 23.4
45 | CC(=O)Nc1ccc(S(=O)(=O)N2CCN(Cc3cccc([N+](=O)[O-])c3)CC2)cc1.O=C(O)C(=O)O | -3.41
46 | CC(C)=CCC/C(C)=C/C(=O)O | 15.2
47 | Cc1cc(N2C(=O)C3CC=CCC3C2=O)no1 (centres unmarked) | -2.08
48 | CCN(CC)C(=O)Oc1ccc2c(=O)c(-c3ccc(OC)cc3)c(C)oc2c1 | -35.8
49 | COc1ccc(/C=C2/C(=N)N3C(=NC2=O)Sc2cc(S(C)(=O)=O)ccc23)cc1OC | 3.28
50 | C[C@H](NC(=O)c1ccccc1Cl)C(=O)OCCOc1cccc(Cl)c1 | -7.09
51 | COc1ccc(CCC(C)NCc2ccccc2OC)cc1 (centres unmarked) | -40.4
52 | COc1ccccc1-n1cnnc1SCC(=O)NCC1CCCO1 (centres unmarked) | 16.6
53 | O=C1CSC(=Nc2ccc(O)cc2)N1 | 19.7
54 | Cc1cccc2c1-c1sc(C(=O)NCCCN3CCC(C)CC3)cc1CO2 | -77.6
55 | CCCN1CCC(NC(=O)Nc2ccccc2C(=O)OC)CC1 | -9.26
56 | CCc1cc(=O)oc2cc(C)c(CN3CCCCC3)c(O)c12 | -20.5
